Laboratory results reported in patent US20240376214A1, “ANTI-C-MET ANTIBODIES AND ANTIBODY-DRUG CONJUGATES” (BYONDIS B.V., priority 2021, published 2024).

Columns and labels:
[1] = Pharmacokinetics in lung LXFL1176 tumor bearing Ces1c KO mice; format: in vivo
Protocol: (§1) Pharmacokinetic/pharmacodynamic studies were performed with anti-c-Met ADC ADC3b in tumor-bearing CES1c KO SCID mice. These mice lack exon 5 of the Ces1c gene leading to the abolishment of the function of the enzyme. Further pharmacokinetic data were obtained from a toxicology study with ADC3b in cynomolgus monkey.
(§2) Mice were dosed with ADC3b (0.3, 1, 3 or 10 mg/kg, intravenous (i.v.) bolus injection) and plasma was collected at 1, 48, 168, 336, 504 hours post dosing. Monkeys were dosed with ADC3b (5, 15 or 25 mg/kg, i.v. infusion) and plasma was collected at 1, 6, 24, 48, 96, 192, 360, 504 hours. An LC-MS/MS based assay was used to quantify total antibody, and ligand binding assays were used to quantify conjugated antibody. The conjugated antibody assay captures ADC species that contain at least one linker drug.

[2] = test system: MAXF574 invasive ductal breast carcinoma xenograft; experiment: Patient-derived breast cancer xenograft model MAXF574; format: in vivo, mice; conditions: single injection 3 mg/kg, FIG. 7
Protocol: The in vivo efficacy of the three humanized anti-c-Met ADCs ADC3a, ADC3b, and ADC3c was evaluated in a patient-derived xenograft model of invasive ductal breast carcinoma, MAXF574 in the B6-Ces1ctm1.1Loc.CB17 Prkdc^scid mouse strain. These mice lack exon 5 of the Ces1c gene leading to the abolishment of the function of the enzyme. The MET gene is not amplified in this tumor; immunohistochemical staining confirmed moderate to high expression of c-Met on the cell surface.
Tumor fragments were obtained from xenografts in serial passage in nude mice. After removal from the donor mice, tumors were cut into fragments (3-4 mm edge length) and placed in PBS containing 10% penicillin/streptomycin. Recipient animals were anesthetized by inhalation of isoflurane and received unilateral tumor implants subcutaneously in the flank. Tumor growth was monitored twice weekly. Tumor volumes were determined by two-dimensional measurement with a digital caliper. Tumor volumes were calculated according to the formula: tumor volume=(1×w^2)×0.5, where l=length and w=width (in mm) of the tumor. […] The mice were dosed the same day or the following day with a single injection of 3 mg/kg ADC3a, ADC3b, or ADC3c. A vehicle and non-binding control ADC were included.

[3] = Pharmacokinetics in cynomolgus monkey, single dose; format: in vivo
Protocol: as §1, §2

[4] = test system: HNXF1905 squamous cell carcinoma xenograft; experiment: Dose-response study, patient-derived head and neck cancer xenograft HNXF1905; format: in vivo, mice; conditions: HNXF1905, single injection 0.3, 1, 3 or 10 mg/kg, FIG. 8A
Protocol: Dose-response studies were performed two patient-derived xenograft models: 1) LXFL1176, a large cell carcinoma derived a lymph node metastasis, and 2) HNXF1905, a primary squamous cell carcinoma from the supraorbital area. The tumor explants were grafted in B6-Ces1ctm1.1Loc.CB17 Prkdc^scid mice using the same protocol as described hereinabove. The MET gene is not amplified in either tumor; immunohistochemical staining confirmed high c-Met expression on the cell surface in the LXFL1176 model, and moderate c-Met expression in the HNXF1905 model.
The mice were dosed on the day of randomization or on the following day with a single injection of 0.3, 1, 3 or 10 mg/kg ADC3b. A vehicle and non-binding isotype control ADC were included. […] The efficacy of ADC3b in head and neck cancer PDX model HNXF1905 is shown in FIG. 8A, the efficacy in lung cancer PDX model LXFL1176 in FIG. 8B.

c-Met negative A2780 = experiment: In vitro cytotoxicity (PrestoBlue, CyQUANT), A2780; format: cell-based, human
Protocol: In a separate experiment, in vitro cytotoxicity of ADC3b was determined in human tumor cell lines with varying levels of c-Met expression. Cells in complete growth medium were plated in 384-well plates (45 μL/well) and incubated at 37° C., 5% CO2 at the following cell densities: 650 MKN-45, 600 EBC-1, 250 PC-3, 400 KP-4, 2000 NCI-H441, 2500 Hep-G2, 4000 A2780, 1500 HCC-1954 and 600 Jurkat NucLight Red cells per well. After an overnight incubation 5 μL of ADC3b was added. Serial dilutions of the ADC were made in culture medium. Cell viability was assessed after 6 days using the fluorescence-based PrestoBlue® Cell Viability Reagent (Invitrogen, Thermo Fisher scientific, USA) and fluorescence-based CyQUANT® Cell Proliferation Assay (Invitrogen, Thermo Fisher scientific, USA) according to the manufacturer's instructions. Percentage survival was calculated by dividing the measured fluorescence for each ADC concentration with the average mean of untreated cells (only growth medium) multiplied with 100.

[5] = Conjugated antibody, 0.3 mg/kg i.v.
[6] = Conjugated antibody, 1 mg/kg i.v.
[7] = Conjugated antibody, 3 mg/kg i.v.
[8] = Conjugated antibody, 10 mg/kg i.v.
[9] = Conjugated antibody, 5 mg/kg, female
[10] = Conjugated antibody, 5 mg/kg, male
[11] = Conjugated antibody, 15 mg/kg, female
[12] = Conjugated antibody, 15 mg/kg, male
[13] = Conjugated antibody, 25 mg/kg, female
[14] = Conjugated antibody, 25 mg/kg, male
[15] = Total antibody, 5 mg/kg, female
[16] = Total antibody, 15 mg/kg, female
[17] = Total antibody, 25 mg/kg, female

B1: ADC3b: mAb3b site-specifically conjugated (HC 41C) to vc-seco-DUBA, DAR 1.9 (conjugate)
heavy: QVQLVQSGAEVKKPGASVKVSCKASGYTFTDYYLNWVRQACGQGLEWMGLIFPGNDKTEYSEKFKGRVTLTTDTSISTAYMELSSLTSDDTALYYCSGGDYGGFVYWGQGTLVTVSS[sequence of human IgG1 constant region not given]
light: DIQMTQSPSSLSASVGDRVTISCGASENIYGALNWYQQQPGKAPKVLIFGATNLADGVPSRFSGSGSGTDFTLTISSLQPEDFATYYCQNVLSSPLTFGQGTKLEIKRTVAAPSVFIFPPSDEQLKSGTASVVCLLNNFYPREAKVQWKVDNALQSGNSQESVTEQDSKDSTYSLSSTLTLSKADYEKHKVYACEVTHQGLSSPVTKSFNRGEC
With B1 the AUClast [1, 5] was 355 µg·h/mL, the Cmax [1, 5] was 4960 ng/mL and the AUClast [1, 6] was 1670 µg·h/mL. The “Approximate t1/2” value [1, 6] was 87.5 h, the Cmax [1, 6] was 19000 ng/mL and the AUClast [1, 7] was 5920 µg·h/mL. For the same molecule, the Cmax [1, 7] was 57400 ng/mL, the AUClast [1, 8] was 33900 µg·h/mL and the Cmax [1, 8] was 187000 ng/mL. It also gave an AUClast ([1]; Total antibody, 0.3 mg/kg i.v.) of 388 µg·h/mL, a Cmax ([1]; Total antibody, 0.3 mg/kg i.v.) of 6240 ng/mL and an AUClast ([1]; Total antibody, 1 mg/kg i.v.) of 1870 µg·h/mL. For the same molecule, the “Approximate t1/2” value ([1]; Total antibody, 1 mg/kg i.v.) was 95.5 h, the Cmax ([1]; Total antibody, 1 mg/kg i.v.) was 22900 ng/mL and the AUClast ([1]; Total antibody, 3 mg/kg i.v.) was 7130 µg·h/mL. The “Approximate t1/2” value ([1]; Total antibody, 3 mg/kg i.v.) was 192 h, the Cmax ([1]; Total antibody, 3 mg/kg i.v.) was 69800 ng/mL and the AUClast ([1]; Total antibody, 10 mg/kg i.v.) was 38500 µg·h/mL. The Cmax ([1]; Total antibody, 10 mg/kg i.v.) was 222000 ng/mL, the anti-tumor activity [2] was “highest anti-tumor activity” and the AUClast [3, 9] was 13700 (F) hrs*μg/mL. The “Approximate t1/2” value [3, 9] was 73.6 (F) hrs, the Cmax [3, 9] was 155 (F) μg/mL and the AUClast [3, 10] was 13000 (M)/ hrs*μg/mL. The “Approximate t1/2” value [3, 10] was 73.7 M/h, the Cmax [3, 10] was 147 (M)/ μg/mL and the AUClast [3, 11] was 39200 (F) hrs*μg/mL. The “Approximate t1/2” value [3, 11] was 125 (F) hrs, the Cmax [3, 11] was 390 (F) μg/mL and the AUClast [3, 12] was 43100 (M)/ hrs*μg/mL. For the same molecule, the “Approximate t1/2” value [3, 12] was 143 M/h, the Cmax [3, 12] was 371 (M)/ μg/mL and the AUClast [3, 13] was 78900 (F) hrs*μg/mL. For the same molecule, the “Approximate t1/2” value [3, 13] was 172 (F) hrs, the Cmax [3, 13] was 659 (F) μg/mL and the AUClast [3, 14] was 77300 (M)/ hrs*μg/mL. The “Approximate t1/2” value [3, 14] was 152 M/h, the Cmax [3, 14] was 676 (M)/ μg/mL and the AUClast [3, 15] was 15000 (F) hrs*μg/mL. The “Approximate t1/2” value [3, 15] was 79.1 (F) hrs, the Cmax [3, 15] was 141 (F) μg/mL and the AUClast ([3]; Total antibody, 5 mg/kg, male) was 14600 (M)/ hrs*μg/mL. For the same molecule, the “Approximate t1/2” value ([3]; Total antibody, 5 mg/kg, male) was 82.4 M/h, the Cmax ([3]; Total antibody, 5 mg/kg, male) was 134 (M)/ μg/mL and the AUClast [3, 16] was 47300 (F) hrs*μg/mL. For the same molecule, the “Approximate t1/2” value [3, 16] was 143 (F) hrs, the Cmax [3, 16] was 373 (F) μg/mL and the AUClast ([3]; Total antibody, 15 mg/kg, male) was 53800 (M)/ hrs*μg/mL. The “Approximate t1/2” value ([3]; Total antibody, 15 mg/kg, male) was 166 M/h, the Cmax ([3]; Total antibody, 15 mg/kg, male) was 372 (M)/ μg/mL and the AUClast [3, 17] was 84500 (F) hrs*μg/mL. For the same molecule, the Cmax [3, 17] was 554 (F) μg/mL, the AUClast ([3]; Total antibody, 25 mg/kg, male) was 84900 (M)/ hrs*μg/mL and the “Approximate t1/2” value ([3]; Total antibody, 25 mg/kg, male) was 159 M/h. The Cmax ([3]; Total antibody, 25 mg/kg, male) was 586 (M)/ μg/mL, the anti-tumor activity [4] was “dose-dependent anti-tumor activity” and the cytotoxicity (c-Met negative A2780) was “No cytotoxicity was observed”.
